Some of the results follow. Cut-off read from the data, not from the text of the source: active = 3.2 or more and inactive = the rest. Most of these values are background signal.
Key:
Assay in all cases: enrichment score (SH2-bound / input frequency) (ratio); bacterial display of known human phosphotyrosine sites (pTyr-Var adds point mutants) read by sequencing; higher = stronger binding; tyrosines were phosphorylated by kinases first
Details in all cases: peptide library: Human pTyr
[1] = target: SHP2 C-SH2 domain E139D
[2] = target: SHP2 C-SH2 domain wild-type
[3] = target: SHP2 N-SH2 domain L43F
[4] = target: SHP2 N-SH2 domain T42A
[5] = target: SHP2 N-SH2 domain T52S
[6] = target: SHP2 N-SH2 domain wild-type
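Note: displayed peptides selected on beads carrying the immobilized SH2 domain, with library peptides lacking any tyrosine serving as negative controls.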

Binder	enrichment score [1]	enrichment score [2]	enrichment score [3]	enrichment score [4]	enrichment score [5]	enrichment score [6]
SPAVPSIYATLAIHG [LIRB1_HUMAN_644]	inactive: 1.75	inactive: 2.17	inactive: 1.3	inactive: 2.66	inactive: 1.5	inactive: 1.62
AAAQSRDYANFPLAL [ANDR_HUMAN_364_YA]	inactive: 0.528	inactive: 0.572	inactive: 0.734	inactive: 0.61	inactive: 0.69	inactive: 0.576
AGPLIVPYNLPLPGG [LGALS3_HUMAN_118]	inactive: 0.639	inactive: 0.554	inactive: 0.616	inactive: 0.504	inactive: 0.726	inactive: 0.69
FSRAKEDYIETDDKK [LMTK2_HUMAN_295_YA]	inactive: 1.2	inactive: 1.35	inactive: 1.26	inactive: 0.979	inactive: 1.25	inactive: 1.26
NIQELNVYSEAQEPK [LPXN_HUMAN_72]	inactive: 0.728	inactive: 0.627	inactive: 0.645	inactive: 0.639	inactive: 0.816	inactive: 0.94
GRAAEGAYAAGPGAG [LPP_HUMAN_301_YA]	inactive: 0.675	inactive: 0.615	inactive: 0.817	inactive: 0.579	inactive: 0.584	inactive: 0.718
TNFTNPVYATLYMGG [LRP1_HUMAN_4507]	inactive: 1.86	active: 4.08	inactive: 1.99	active: 3.46	inactive: 1.53	inactive: 1.27
AAQVDVLYSRVCKPK [LIME1_HUMAN_200]	inactive: 0.946	inactive: 1.15	inactive: 0.816	inactive: 0.866	inactive: 0.807	inactive: 0.794
YGIGFSRYKEDYIET [LMTK2_HUMAN_291]	inactive: 0.64	inactive: 1.86	inactive: 0.984	inactive: 1.15	inactive: 0.942	inactive: 1.18
GGERPFRYGPRTPVS [LIMC1_HUMAN_313]	inactive: 1.26	inactive: 1.42	inactive: 1.01	inactive: 1.39	inactive: 1.62	inactive: 1.52
SGPLENVYESIRELG [LIME1_HUMAN_254]	inactive: 0.755	inactive: 0.741	inactive: 0.824	inactive: 0.527	inactive: 0.757	inactive: 0.806
VEIGNPTYKMAEGGE [LRP1_HUMAN_4473_YA]	inactive: 0.851	inactive: 0.716	inactive: 0.77	inactive: 0.818	inactive: 0.966	inactive: 0.719
AGLAHSNYKEDAALT [LMTK3_HUMAN_292_YA]	inactive: 0.956	inactive: 0.788	inactive: 0.659	inactive: 0.79	inactive: 0.56	inactive: 0.763
EAPQDVTYAQLHSLT [LIRB1_HUMAN_614]	inactive: 0.893	inactive: 1.1	inactive: 0.878	inactive: 2.71	inactive: 0.718	inactive: 0.61
GAPAPGVYPGPPSGP [LGALS3_HUMAN_79]	inactive: 0.564	inactive: 0.414	inactive: 0.439	inactive: 0.461	inactive: 0.419	inactive: 0.405
AAYQSRDYYNFPLAL [ANDR_HUMAN_364]	inactive: 2.14	inactive: 2.35	inactive: 2.11	inactive: 2.17	inactive: 2.42	inactive: 2.88
APSSGQIYGSGPQGY [LPP_HUMAN_244]	inactive: 0.5	inactive: 0.553	inactive: 0.67	inactive: 0.535	inactive: 0.679	inactive: 0.683
DLASQPVYCNLQSLG [LRC25_HUMAN_284]	inactive: 1.56	inactive: 1.32	inactive: 1.31	inactive: 1.27	inactive: 1.49	inactive: 1.54
